From PubChem BioAssay AID902 (National Center for Advancing Translational Sciences (NCATS), 2007)
In all, about 130,000 compounds went through this assay and about 1,900 (1.5%) were called active. The shares of active, inactive and inconclusive entries below differ from those in the screen. Calls follow the shape of the dose curve; as a rule, active = well fitted cell-killing curve with a large enough effect; inconclusive = small, poorly fitted or top-dose-only effect; inactive = no such curve, though single readings can be large or run the other way. Potencies beside an inconclusive call are fits to weak or partial responses and may not hold up.

Assay: qHTS Screen for Compounds that Selectively Target Cancer Cells with p53 Mutations: Cytotoxicity of p53ts Cells at the Nonpermissive Temperature; also: nearly all actives have a fitted effect of over 55% in size
Conditions: H1299-p53A138V viability at 39C, ATP luminescence, 24 h; activity change, negative = cell killing: at 46.1 µM (top of the series)
% is scaled to controls: 0 for no effect and ±100 for the full control effect; potency is read from the fitted curve at half-maximal effect; tags tell the direction and shape of the fitted curve.

| SMILES | Potency | activity change, negative = cell killing |
| --- | --- | --- |
| COc1ccc(/C=C2\SC(=N)N(c3nccs3)C2=O)cc1OC | active: 14.1 µM | – |
| CCc1cccc(NC(=O)c2ccc3c(=O)n4nc(Nc5ccccc5OC)sc4nc3c2)c1 | active: 5.01 µM | – |
| CCCN(CCC)CCNC(=O)c1cc(Sc2ccc(Cl)cc2)nc2ccccc12 | inconclusive: 25.1 µM [cytotoxic, partial curve] | – |
| COc1ccc(-n2nc3c(c2NC(=O)c2cc4ccccc4oc2=O)CS(=O)(=O)C3)cc1 | inactive | – |
| N#CCSc1n[nH]c2nc3c(c(=O)n12)C1(CCCC1)Cc1ccccc1-3 | inactive | – |
| Cc1ccc(C)c(NC(=O)Cn2c(=O)oc3cc(S(=O)(=O)NCc4ccccc4)ccc32)c1 | inactive | – |
| CCOC(=O)c1[nH]c(C)c(C(=O)Nc2cc(OC)ccc2OC)c1C | inactive | – |
| CCc1ccc(Sc2cc(C(=O)NCCCN3CCCC(C)C3)c3ccccc3n2)cc1 (stereo not given) | inconclusive: 6.31 µM [cytotoxic, single point] | – |
| O=C(N/N=C/c1cccs1)c1cc(-c2cccc3ccccc23)n[nH]1 | inconclusive: 11.2 µM [cytotoxic, single point] | – |
| O=C(c1ccc(F)cc1)N1c2ncnn2C2(CCCCC2)[C@@H]2CCCC[C@@H]21 | inconclusive: 25.1 µM [cytotoxic, single point] | – |
| O=C(Cn1cnc2c(oc3ccccc32)c1=O)N1CCCc2ccccc21 | inactive | – |
| O=c1nc2c(-c3ccccc3F)n[nH]n2c2ccccc12 | inconclusive: 7.94 µM [cytotoxic, partial curve] | – |
| CCCN(CC1COc2ccccc2O1)C(=S)Nc1ccc(C)cc1 (stereo not given) | inconclusive: 0.0316 µM [cytotoxic, full curve, poor fit] | – |
| CCOC(=O)c1nn(-c2ccc3c(c2)OCO3)cc1O | inconclusive: 10 µM [cytotoxic, partial curve] | – |
| CCOc1ccccc1CN(CCc1ccc2c(c1)OCO2)Cc1cc(OC)c(OC)cc1OC | inconclusive: 1.26 µM [cytotoxic, partial curve, poor fit] | – |
| COc1ccc2oc(=O)cc(CN3CCN(C(=O)c4ccccc4)CC3)c2c1 | inconclusive: 1.26 µM [cytotoxic, partial curve] | – |
| Cc1cccc(NS(=O)(=O)c2nnc(NC(=O)C3CCCCC3)s2)c1 | inconclusive: 31.6 µM [cytotoxic, single point] | – |
| COc1ccc(CCNC(=O)Cn2nnc(-c3cccc(C(F)(F)F)c3)n2)cc1OC | inactive | – |
| Cc1ccc(-n2nc(CO)c(C(=O)NCCO)n2)cc1 | inconclusive: 14.1 µM [cytotoxic, partial curve, poor fit] | – |
| CSc1ncnc2nc[nH]c12 | inactive | – |
| Cn1c(-c2ccc(C(C)(C)C)cc2)n[nH]c1=S | inactive | – |
| CCCC(c1nnnn1C1CCCC1)N1CCN(c2ccccc2F)CC1 (stereo not given) | inactive | – |
| Cc1ccc(S(=O)(=O)N(CC(O)Cn2c3ccccc3c3ccccc32)c2cccc(C(=O)NCCO)c2)cc1 (stereo not given) | inconclusive: 25.1 µM [cytotoxic, single point] | – |
| CCOc1cc(CNc2ccc(O)cc2)cc(Cl)c1OCc1ccccc1 | inconclusive: 31.6 µM [cytotoxic, single point] | – |

| SMILES | Potency | activity change, negative = cell killing |
| --- | --- | --- |
| Cc1c(NC(=O)Cc2ccccc2)cccc1-c1nc2cccnc2s1 | inactive | – |
| CCc1ccccc1NC(=O)c1ccc(F)c(S(=O)(=O)N2CCN(c3ccccc3OC)CC2)c1 | inactive | – |
| O=C(Nc1ccc(C(=O)N2CCCC2)cc1)c1ccccc1F | inconclusive: 10 µM [cytotoxic, single point] | – |
| CCOC(=O)N1CCN(CCC(=O)Nc2cccc(F)c2)CC1 | inactive | – |
| Cc1cccc(N2C(=O)C(CC(=O)Nc3cccc(F)c3)N(CCc3ccncc3)C2=O)c1 (stereo not given) | inconclusive: 20 µM [cytotoxic, single point] | – |
| COc1ccc(C)cc1NC(=O)CSc1nnc(-c2ccc(C)cc2)o1 | inconclusive: 12.6 µM [cytotoxic, single point] | – |
| O=C(Nc1nc2c(F)cccc2s1)c1ccc2c(c1)OCCO2 | active: 5.01 µM | – |
| COc1ccc(OC)c(CC2C(=O)Nc3ccc(Br)cc32)c1 (stereo not given) | inconclusive: 25.1 µM [cytotoxic, single point] | – |
| COc1ccc(Cl)cc1C(=O)NCCS(=O)(=O)N1CCN(c2ccccc2OC)CC1 | inconclusive: 3.98 µM [cytotoxic, full curve, poor fit] | – |
| O=C(Cc1nc2ccccc2s1)c1ccc(O)cc1O | inconclusive: 10 µM [cytotoxic, partial curve] | – |
| COCC(=O)N1CCC2(CCCN(C(=O)Nc3ccc(OC)cc3)C2)CC1 | inactive | – |
| CCOc1ccccc1CNC(=O)c1oc2c(c1C)-c1nn(Cc3cccc(Cl)c3)cc1CC2 | inconclusive: 31.6 µM [cytotoxic, single point] | – |
| Cc1ccc(NC(=O)C2CCCN2S(=O)(=O)c2cccc3cccnc23)c(C)c1 (stereo not given) | inconclusive: 0.0251 µM [cytotoxic, full curve, poor fit] | – |
| CCOc1ccc(C(=O)NCc2nc(-c3ccc(Cl)cc3)no2)cc1OCC | inconclusive: 31.6 µM [cytotoxic, single point] | – |
| CCOC(=O)c1cnc2ccc(OC)cc2c1Nc1cccc(C(C)=O)c1 | inactive | – |
| CCCC(=O)n1nc(-c2ccco2)nc1SCc1ccccc1 | inconclusive: 10 µM [cytotoxic, single point] | – |
| COc1ccc(-c2cn3c(C)c(C(=O)Nc4cc(C)cc(C)c4)sc3n2)cc1 | inconclusive: 0.01 µM [cytotoxic, full curve, poor fit] | – |
| N#Cc1c(/N=C/c2cccs2)sc2c1CCCCC2 | active: 10 µM | – |
| COC(=O)CCn1nnc(-c2ccc(C(C)C)cc2)n1 | inconclusive: 12.6 µM [cytotoxic, single point] | – |
| COc1cc(NC(=O)c2cc(-c3cccc(OC)c3)n[nH]2)cc(OC)c1 | inconclusive: 15.8 µM [cytotoxic, partial curve, poor fit] | – |
| O=C(NCCCN1CCN(c2cccc(Cl)c2)CC1)c1cnn(-c2ccc(F)cc2)c1-n1cccc1 | active: 2.51 µM | – |
| Cc1ccc(N2CC(NC(=O)c3cccc(Cl)c3)CC2=O)cc1C (stereo not given) | inactive | – |
| COc1ccccc1Nc1nc2ccccc2[nH]1 | inconclusive: 10 µM [cytotoxic, single point] | – |
| Cc1nn(-c2ccccc2)c2c1C(c1ccncc1)C(C#N)=C(N)O2 (stereo not given) | inactive | – |

| SMILES | Potency | activity change, negative = cell killing |
| --- | --- | --- |
| CCCOC(=O)c1ccc(Oc2cn[nH]c2-c2ccc(OC)cc2O)cc1 | inconclusive: 31.6 µM [cytotoxic, single point] | – |
| CC(=O)OCC(=O)[C@]12OC(C)(C)O[C@@H]1C[C@H]1[C@H]3CC=C4C[C@@H](O)CC[C@]4(C)[C@H]3CC[C@]12C | – | inactive: 11.5% [at 9.22 µM] |
| CC(=O)c1ccc(NC(=O)CCc2c(C)nn(-c3ccc(N4CCOCC4)nn3)c2C)cc1 | inconclusive: 10 µM [cytotoxic, partial curve, poor fit] | – |
| Cc1ccccc1OCCn1c(=N)n(C(C)C)c2ccccc21 | inconclusive: 15.8 µM [cytotoxic, single point] | – |
| COc1cc(OC)c(NC(=O)c2csc3c2CCC(C)C3)cc1Cl (stereo not given) | inconclusive: 25.1 µM [cytotoxic, single point] | – |
| CCOc1ccccc1NC(=O)Cn1c(=O)n(CCC(=O)NCc2ccc3c(c2)OCO3)c(=O)c2ccccc21 | inconclusive: 3.16 µM [cytotoxic, full curve] | – |
| c1ccc(COc2ccc(OCCOCCn3cncn3)cc2)cc1 | inconclusive: 10 µM [cytotoxic, partial curve] | – |
| Fc1ccc(-n2ncc3c(NC4CCCCCC4)ncnc32)cc1 | inconclusive: 0.0079 µM [cytotoxic, full curve, poor fit] | – |
| COc1ccc2[nH]cc(CCNc3nc(-c4ccccc4CN(C)C)nc4ccccc34)c2c1 | inconclusive: 25.1 µM [cytotoxic, single point] | – |
| CCOc1ccc(C(=O)N2CCC(c3nnc(-c4ccccc4OC)o3)CC2)cc1 | inactive | – |
| CCCOc1ccc(CC2C(=O)Nc3ccc(Br)cc32)cc1 (stereo not given) | active: 20 µM | – |
| CCOc1ccccc1CNC(=O)CCc1cn(C)c2ccccc12 | inconclusive: 31.6 µM [cytotoxic, partial curve, poor fit] | – |
| Cc1ccc(C(=O)CC2(O)C(=O)N(CCc3ccccc3)c3ccc(Br)cc32)cc1 (stereo not given) | inconclusive: 15.8 µM [cytotoxic, single point] | – |
| CCc1cccc(NC(=O)CN2C(=O)COc3ccc(S(=O)(=O)N4CCC(C)CC4)cc32)c1 | inconclusive: 3.16 µM [cytotoxic, full curve] | – |
| CCn1c2ccccc2c2cc(Nc3cc(C)nc4ncnn34)ccc21 | inactive | – |
| COc1ccc2nc(N3CCCC(C(=O)NCCCN4CCN(C)CC4)C3)sc2c1 (stereo not given) | active: 10 µM | – |
| CC(=O)NC(c1ccco1)c1ccc2cccnc2c1O (stereo not given) | inconclusive: 3.16 µM [cytotoxic, full curve] | – |
| Cc1ccc2scc(N3CCCC(C)C3)c(=O)c2c1 (stereo not given) | inconclusive: 15.8 µM [cytotoxic, partial curve] | – |
| Cc1ccc(-n2nc3c(N4CCCC(C(=O)NCc5ccccc5C)C4)nnc(C)c3c2C)cc1 (stereo not given) | inconclusive: 0.501 µM [cytotoxic, full curve] | – |
| COc1ccccc1C(=O)OCc1cc(=O)n2c(C)csc2n1 | active: 0.126 µM | – |
| Cc1cccc(N2CCN(S(=O)(=O)c3ccc4c(c3)CCC(=O)N4)CC2C)c1 (stereo not given) | inconclusive: 20 µM [cytotoxic, partial curve, poor fit] | – |
| CCOc1ccc(S(=O)(=O)Nc2cc3c(C(=O)OCc4ccccc4)c(C)oc3c3ccccc23)cc1 | inconclusive: 6.31 µM [cytotoxic, partial curve] | – |
